# Data published in the supplement of paper PMC3334620.
# In all, about 33,000 sequences were measured (“E-score (-0.5 to 0.5)”: median about -0.017, highest 2% from about 0.3 on). The list shows a part of the results.
# Biological target: T1, Sut1 (UniProt P53032)
# T1 sequence: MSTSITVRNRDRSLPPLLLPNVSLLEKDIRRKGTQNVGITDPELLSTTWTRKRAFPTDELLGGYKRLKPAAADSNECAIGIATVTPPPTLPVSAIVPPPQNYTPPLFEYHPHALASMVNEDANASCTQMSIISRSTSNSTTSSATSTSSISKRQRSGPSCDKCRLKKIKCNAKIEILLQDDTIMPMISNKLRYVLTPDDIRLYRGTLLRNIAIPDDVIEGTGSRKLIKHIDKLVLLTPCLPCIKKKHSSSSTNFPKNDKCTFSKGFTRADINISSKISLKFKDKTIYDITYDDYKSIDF
# Test: PBM E-score (8-mer binding enrichment) (E-score (-0.5 to 0.5)); higher = stronger / more preferred TF binding; most listed sequences are background and not binding sites
# Conditions: protein concentration: 200 nM; construct: GST-full length
# How it was run: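 Yeast transcription factors carrying a GST tag, as full-length proteins or DNA-binding domains, were produced by PURExpress in vitro transcription/translation. About 100-200 nM protein was applied to universal all-10-mer Agilent arrays, double-stranded by primer extension on fresh or once-stripped slides. Bound protein was detected with fluorescent anti-GST, and scans were normalised with masliner. The Universal PBM Analysis Suite gave each ungapped eight-base word, pooled with its reverse complement, an E-score, a modified Wilcoxon-Mann-Whitney statistic.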
row,Sequence,PBM E-score
1,AGAAACTA,0.0533
2,CTCAGCTA,-0.13
3,TATGAGAA,0.141
4,AGGAACAT,0.0288
5,CGGTGCAA,-0.00847
6,ACCAAGTC,0.166
7,CTCACCAG,-0.0993
8,TGCCGCAA,-0.0982
9,ACGTACCT,-0.195
10,CCTCACGC,-0.0319
11,CAATTCAC,0.182
12,TGAGCACA,-0.0427
13,AATTCCGT,0.317
14,CCCCGACA,0.0397
15,ACGCATGA,-0.138
16,AGCAGGCG,-0.211
17,CGGGCCGC,-0.246
18,GACGTTGA,0.0656
19,GCACAGGC,-0.0466
20,CAGACGGC,-0.269
21,TACAAAAA,0.268
22,AACATTAG,0.0473

row,Sequence,PBM E-score
1,CGTCACAC,-0.00776
2,CAGCAGGG,-0.27
3,CCCTCCAC,-0.0582
4,CGTGACTC,-0.117
5,ATCAAAAA,0.196
6,GATATCCA,0.0613
7,ATAAGACG,-0.0616
8,TATCCTGA,0.0955
9,ACCGCGCG,0.101
10,ACGGGTCC,0.00301
11,ACAACTGG,-0.169
12,TTCTAGAA,0.0328
13,ACATCTCA,0.0619
14,ATTACCAG,-0.0573
15,ATCGAACC,-0.0351
16,ACAACTCG,0.0329
17,ACAGTACC,-0.085
18,AGCATACC,-0.046
19,CAGGCATC,-0.164
20,CCAAAAGC,-0.0769
21,AGGATTAT,-0.0525
22,GCCTTATA,-0.0334

row,Sequence,PBM E-score
1,AATGATCT,-0.0167
2,CGGATGGA,0.0349
3,CCTTATAA,0.217
4,CGTCAAAG,-0.095
5,CGAAAACG,0.00882
6,CATTCATC,-0.0281
7,GTGTGGGA,-0.0973
8,TCAGCGGA,0.113
9,AATATGTG,0.0989
10,CACAGTCA,-0.229
11,ACGTACCC,-0.0772
12,CATTTACC,0.127
13,AGCATGAG,-0.0431
14,CGTTTCAG,0.171
15,CGAGTATC,-0.101
16,GCGCCAGC,-0.257
17,CAACCAGC,-0.0595
18,ATCCCGGA,0.328
19,ACAGGGGG,-0.258
20,AAATGGAT,0.0439
21,AGGAGCGC,-0.116
22,GGCTGATA,-0.105

row,Sequence,PBM E-score
1,GAATTACC,0.00994
2,GGCTGCCC,-0.159
3,GTACGGAC,0.297
4,ACGAGCGG,-0.11
5,CCGGTTGA,0.151
6,ATTTCTCG,0.268
7,GGGGATTA,0.0121
8,TGCAAAAA,0.175
9,ATCGTGGC,-0.0298
10,AATAGCAT,0.136
11,AGCTCTGA,-0.104
12,AGACGACC,-0.056
13,AATTCTCA,0.131
14,AGCGACCT,-0.0631
15,GCTAGTCC,0.145
16,AAAGAAAG,0.249
17,GAAACAAA,0.321
18,CTAGCTAG,0.132
19,CGATGCGA,-0.0438
20,AGGTGGAG,0.0604
